# Out of some 220,000 compounds screened, about 16,000 (7.3%) were called active. The inconclusive results got no clear call from the source; some entries with a clear call stand among them for comparison. The call rests on the fitted dose curve; in most records, active means well fitted inhibition curve with a large enough effect (not every such curve was filed as active); inconclusive means small, poorly fitted or top-dose-only effect, or another doubt; inactive means no such curve, though single readings can be large or run the other way. Potencies of inconclusive entries are left out as doubtful fits.
# Target: Aldehyde dehydrogenase 1A1 (Homo sapiens) (UniProt P00352)
# Chain of UniProt P00352 (P00352 whole entry, looked up): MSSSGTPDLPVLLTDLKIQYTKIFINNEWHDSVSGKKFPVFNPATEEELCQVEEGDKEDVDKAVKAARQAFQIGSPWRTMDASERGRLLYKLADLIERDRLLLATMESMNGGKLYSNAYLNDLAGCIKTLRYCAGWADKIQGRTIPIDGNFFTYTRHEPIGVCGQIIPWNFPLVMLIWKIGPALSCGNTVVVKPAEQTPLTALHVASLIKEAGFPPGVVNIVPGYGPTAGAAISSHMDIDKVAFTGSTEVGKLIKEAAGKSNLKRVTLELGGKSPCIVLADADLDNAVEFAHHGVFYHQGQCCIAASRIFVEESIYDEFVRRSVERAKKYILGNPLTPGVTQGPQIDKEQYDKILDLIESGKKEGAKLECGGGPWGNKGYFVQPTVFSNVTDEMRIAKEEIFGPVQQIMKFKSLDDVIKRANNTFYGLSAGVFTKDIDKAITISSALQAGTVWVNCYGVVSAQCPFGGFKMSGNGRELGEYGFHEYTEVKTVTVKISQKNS
# Test: qHTS Assay for Inhibitors of Aldehyde Dehydrogenase 1 (ALDH1A1);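 on activity, negative = inhibition: plate controls were no enzyme wells and a reference inhibitor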
# Conditions: Purified ALDH1A1, NADH fluorescence, propionaldehyde substrate; series mostly up to 75.3 µM; activity, negative = inhibition: at the top concentration
# Potency means the concentration at half of the fitted maximal effect; tags describe the fitted curve by direction and shape.
Structure (SMILES),Potency,"activity, negative = inhibition"
CCCc1nc(-c2cc3ccc(C)cc3[nH]c2=O)no1,"inconclusive [inhibitor, partial curve]",
C=CCSc1nnc(-c2cc(Br)ccc2N)c(=O)[nH]1,"inconclusive [inhibitor, single point]",
CC(=O)C1=C(O)C(=O)N(CCc2ccccc2)C1c1ccccc1[N+](=O)[O-] (centres undefined),"inconclusive [inhibitor, single point]",
COc1ccc(/C=N/NC(=O)c2nc(-c3ccccc3)n(-c3ccccc3)n2)cc1,"inconclusive [inhibitor, single point]",
COc1ccc(/C=C(/NC(=O)c2ccccc2)C(=O)N/N=C/c2ccc3c(c2)OCO3)cc1OC,,inactive: -1.83%
N/C(Cc1ccc([N+](=O)[O-])cc1)=N\OC(=O)c1ccco1,"inconclusive [inhibitor, single point]",
O=C(COC(=O)C1CC1)Nc1ccc2[nH]c(=O)[nH]c2c1,"inconclusive [inhibitor, single point]",
CCOc1ccc(-c2nc(C#N)c(NCC3CCCO3)o2)cc1 (centres undefined),"inconclusive [inhibitor, partial curve]",
CC(=O)Nc1cccc(NC(=O)CSc2ccc(C(F)(F)F)cc2[N+](=O)[O-])c1,"inconclusive [inhibitor, partial curve, poor fit]",
O=C1[C@H]2CCC=C[C@H]2[C@H](c2cccc(Br)c2)N1Cc1ccccc1,,inactive: -9.5%
CC1(C)OC(c2ccccc2)=C/C(=C/C=N/NC(=O)c2ccncc2)O1,"inconclusive [inhibitor, single point]",
CSc1nc(Oc2ccc3ccccc3c2)c2ccccc2n1,"inconclusive [inhibitor, single point]",
COCCCN(CCCN)Cc1ccco1,,inactive: 8.39%
O=C(CCSc1nc(-c2ccco2)cc(C(F)(F)F)n1)N1CCN(c2ccccc2)CC1,"inconclusive [inhibitor, single point]",
CCOC(=O)c1c(/N=C/C2C(=O)CCCC2=O)sc(C)c1C,"inconclusive [inhibitor, full curve]",
Cc1ccc(OCC(=O)N2CCN(C(=O)c3ccco3)CC2)cc1,,inactive: -8.26%
COc1ccc(CCNC(=O)COc2ccc([N+](=O)[O-])cc2)cc1,"inconclusive [inhibitor, partial curve]",
CCn1cc(C(=O)NCc2ccccc2)c(=O)c2cc(F)c(N3CCN(C(=O)c4ccco4)CC3)cc21,"inconclusive [inhibitor, partial curve]",
CN1CCN(C(=S)c2ccc(N(C)C)cc2)CC1,active: 28.2 µM,
CC(NC(=S)NCc1ccccc1)C12CC3CC(CC(C3)C1)C2 (centres undefined),"inconclusive [inhibitor, full curve, poor fit]",
CCOC(=O)CC(=O)CSc1nc(N)c(C#N)c(-c2ccc(F)cc2)c1C#N,"inconclusive [inhibitor, partial curve]",
CCOCC(=O)Nc1ccc(-c2cn3cccnc3n2)cc1,"inconclusive [inhibitor, partial curve]",

Structure (SMILES),Potency,"activity, negative = inhibition"
Nc1cc(Cl)nc(N/N=C/c2ccc([N+](=O)[O-])cc2)n1,,inactive: -7.36%
CCC1(CC)Cc2ccccc2-c2nc(NCCO)[nH]c(=O)c21,"inconclusive [inhibitor, partial curve]",
CCOC(=O)CCNC(=O)Nc1ccc2nc(C)n(Cc3ccccc3Cl)c(=O)c2c1,"inconclusive [inhibitor, partial curve]",
Cn1c(Cl)cnc1C1CC(=O)c2cc(Cl)ccc2O1 (centres undefined),active: 17.8 µM,
CCOc1ccc(C(=O)NC(=S)Nc2cccnc2)cc1[N+](=O)[O-],,inactive: -2.02%
Cc1noc(C)c1C(=O)N1CCC[C@@]2(CCN(Cc3nccs3)C2)C1,,inactive: 0.81%
O=C(COC(=O)c1ccccc1Br)NCCN1C(=O)CSC1=O,active: 14.1 µM,
Cc1occc1C(=O)NCCCCc1ccccc1,active: 17.8 µM,
CCC1(C)Cc2ccccc2-c2nc(NCCO)n(-c3ccccc3)c(=O)c21 (centres undefined),"inconclusive [inhibitor, partial curve]",
Cc1cc(C)cc(NC(=O)c2c(C)nc3ccccn23)c1,,inactive: -8.4%
COc1cccc(-n2c([S-])c(C(=O)Nc3ccc(S(=O)(=O)N4CCOCC4)cc3)[n+]3cc(C(N)=O)ccc23)c1,"inconclusive [inhibitor, single point]",
COc1ccc(C2=NN(S(C)(=O)=O)C(c3cccs3)C2)cc1 (centres undefined),"inconclusive [inhibitor, partial curve, poor fit]",
CN(C)CCCn1c(SCC(=O)Nc2sc3c(c2C#N)CCCC3)nnc1-c1ccncc1,active: 7.08 µM,
O=S(=O)(c1ccc(N=C2NN=C(c3cc(F)ccc3F)CS2)cc1)N1CCOCC1,active: 28.2 µM,
Clc1cc2c(c(CSC3=NCN(CC4CC4)CN3)c1)OCOC2,,inactive: -6.39% [at 13.5 µM]
COc1ccccc1-n1c(SCC(=O)Nc2ccc(F)cc2)nc2c(c1=O)SCC2,active: 11.2 µM,
CC12CCC(=O)N1C(C(=O)OCC(=O)Nc1ccc(S(N)(=O)=O)cc1)CS2 (centres undefined),"inconclusive [inhibitor, single point]",
COc1ccc(CCNC(=O)CSc2nnc(-c3cccc(C)c3)o2)cc1OC,active: 17.8 µM,
Cc1ccc(OCC(=O)Nc2ccc(-c3nc4ncccc4o3)cc2)cc1,"inconclusive [inhibitor, partial curve, poor fit]",
N#CC1=CN(Cc2ccccc2)C=C(/C=N/Nc2ccccc2)C1,"inconclusive [inhibitor, single point]",
CCOC(=O)c1c(C)[nH]c(C)c1C(=O)CSc1nc2ccccc2c(=O)n1-c1ccc(C)cc1,"inconclusive [inhibitor, partial curve]",
CCOC(=O)c1c(NC(=O)CSc2nnc(-c3cccnc3)n2Cc2ccco2)sc(C)c1C,active: 25.1 µM,

# — PubChem BioAssay AID1030 (National Center for Advancing Translational Sciences (NCATS), 2008)
